Results are given in words; binding and its absence hold for the method and conditions named. Binding seen in cells or lysates may run through a third protein. Some results given as binding are weak or reduced against the parent protein; the word gives no strength. For some of these results: Sequences can lack the tags named with a protein. Blank lines part the entries; values can stand above or below the substance they belong to.
What was measured:
EGFP-PDE6D (human) [1] = target: EGFP-PDE6D (human) (UniProt O43924); test: co-IP; visible immunoprecipitation (VIP) assay with three coexpressed proteins fused to EGFP, mChe and tBFP in HEK293T cells; EGFP fusion precipitated with GST-anti-GFP nanobody beads; beads observed under a fluorescence microscope; vector ratios ARL3:INPP5E:PDE6D 1:6:1 or ARL13B:INPP5E:PDE6D 4:5:1
EGFP-INPP5E [2] = target: T1, EGFP-INPP5E (UniProt Q9NRR6); test: co-IP; visible immunoprecipitation (VIP) assay followed by immunoblotting (anti-mChe, anti-GFP); lysates of HEK293T cells coexpressing two fluorescent fusion proteins; EGFP fusion precipitated with GST-fused anti-GFP nanobody prebound to glutathione-Sepharose beads; lysis buffer 50 mM HEPES pH 7.4, 100 mM KCl, 1 mM DTT, 5 mM NaCl, 3 mM MgCl2, 0.5% Triton X100, 10% glycerol
T1 sequence: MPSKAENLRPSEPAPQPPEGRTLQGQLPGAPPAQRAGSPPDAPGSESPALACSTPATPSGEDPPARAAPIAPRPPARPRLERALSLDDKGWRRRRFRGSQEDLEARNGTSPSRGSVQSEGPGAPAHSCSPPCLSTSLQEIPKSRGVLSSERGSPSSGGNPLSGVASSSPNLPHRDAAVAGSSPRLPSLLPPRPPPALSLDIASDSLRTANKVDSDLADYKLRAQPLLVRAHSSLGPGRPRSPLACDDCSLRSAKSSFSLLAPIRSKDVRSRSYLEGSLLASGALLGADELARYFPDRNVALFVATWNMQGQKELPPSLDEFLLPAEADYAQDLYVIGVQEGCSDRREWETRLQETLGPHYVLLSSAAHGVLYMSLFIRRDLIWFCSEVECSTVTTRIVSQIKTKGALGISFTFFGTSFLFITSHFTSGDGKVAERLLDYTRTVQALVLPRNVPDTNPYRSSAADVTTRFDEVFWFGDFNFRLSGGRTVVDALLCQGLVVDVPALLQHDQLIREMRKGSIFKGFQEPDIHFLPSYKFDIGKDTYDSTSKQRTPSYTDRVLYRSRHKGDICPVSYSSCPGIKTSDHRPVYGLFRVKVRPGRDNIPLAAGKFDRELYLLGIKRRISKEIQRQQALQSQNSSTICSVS

By UniProt entry, the sequences of proteins in these tests, tags left out. Where a name states a change or a piece, a line headed by the entry shows the natural chain unless it says otherwise.
UniProt Q3SXY8: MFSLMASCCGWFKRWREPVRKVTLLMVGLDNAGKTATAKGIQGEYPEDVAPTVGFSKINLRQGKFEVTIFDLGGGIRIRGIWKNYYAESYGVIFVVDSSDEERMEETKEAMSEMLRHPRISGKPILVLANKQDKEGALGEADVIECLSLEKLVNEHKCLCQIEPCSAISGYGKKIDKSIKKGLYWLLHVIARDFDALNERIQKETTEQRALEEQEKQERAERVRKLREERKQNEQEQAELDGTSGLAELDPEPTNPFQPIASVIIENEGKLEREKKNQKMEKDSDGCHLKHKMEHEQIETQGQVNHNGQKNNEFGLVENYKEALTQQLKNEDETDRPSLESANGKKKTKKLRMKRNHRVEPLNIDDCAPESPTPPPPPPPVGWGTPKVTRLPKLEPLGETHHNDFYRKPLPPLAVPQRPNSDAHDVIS
UniProt P36405: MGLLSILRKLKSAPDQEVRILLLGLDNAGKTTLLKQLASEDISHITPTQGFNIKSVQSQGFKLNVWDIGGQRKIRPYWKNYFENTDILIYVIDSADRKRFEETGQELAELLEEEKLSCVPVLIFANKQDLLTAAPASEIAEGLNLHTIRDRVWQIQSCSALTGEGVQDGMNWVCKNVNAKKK

EGFP-fused INPP5E(1-626) = target: T2, EGFP-fused INPP5E(1-626) (UniProt Q9NRR6); test: as above
T2 sequence: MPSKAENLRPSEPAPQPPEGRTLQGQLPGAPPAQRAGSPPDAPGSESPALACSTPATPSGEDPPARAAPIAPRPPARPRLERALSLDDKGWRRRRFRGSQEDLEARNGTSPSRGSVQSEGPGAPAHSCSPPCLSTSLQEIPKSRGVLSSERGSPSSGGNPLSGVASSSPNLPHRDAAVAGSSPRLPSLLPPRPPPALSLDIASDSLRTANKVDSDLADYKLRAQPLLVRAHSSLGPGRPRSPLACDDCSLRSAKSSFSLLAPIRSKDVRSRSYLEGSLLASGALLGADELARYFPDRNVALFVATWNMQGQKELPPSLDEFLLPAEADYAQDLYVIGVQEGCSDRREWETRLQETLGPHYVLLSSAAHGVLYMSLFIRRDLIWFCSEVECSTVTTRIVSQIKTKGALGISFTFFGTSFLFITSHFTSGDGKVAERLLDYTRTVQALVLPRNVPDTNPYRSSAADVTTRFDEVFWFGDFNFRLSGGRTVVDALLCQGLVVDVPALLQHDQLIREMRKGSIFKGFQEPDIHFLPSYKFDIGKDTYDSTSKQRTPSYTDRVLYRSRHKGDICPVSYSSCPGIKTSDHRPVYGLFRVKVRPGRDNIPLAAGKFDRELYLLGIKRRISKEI

EGFP-fused INPP5E(ΔCTS) = target: T3, EGFP-fused INPP5E(ΔCTS) (UniProt Q9NRR6); test: as above
T3 sequence: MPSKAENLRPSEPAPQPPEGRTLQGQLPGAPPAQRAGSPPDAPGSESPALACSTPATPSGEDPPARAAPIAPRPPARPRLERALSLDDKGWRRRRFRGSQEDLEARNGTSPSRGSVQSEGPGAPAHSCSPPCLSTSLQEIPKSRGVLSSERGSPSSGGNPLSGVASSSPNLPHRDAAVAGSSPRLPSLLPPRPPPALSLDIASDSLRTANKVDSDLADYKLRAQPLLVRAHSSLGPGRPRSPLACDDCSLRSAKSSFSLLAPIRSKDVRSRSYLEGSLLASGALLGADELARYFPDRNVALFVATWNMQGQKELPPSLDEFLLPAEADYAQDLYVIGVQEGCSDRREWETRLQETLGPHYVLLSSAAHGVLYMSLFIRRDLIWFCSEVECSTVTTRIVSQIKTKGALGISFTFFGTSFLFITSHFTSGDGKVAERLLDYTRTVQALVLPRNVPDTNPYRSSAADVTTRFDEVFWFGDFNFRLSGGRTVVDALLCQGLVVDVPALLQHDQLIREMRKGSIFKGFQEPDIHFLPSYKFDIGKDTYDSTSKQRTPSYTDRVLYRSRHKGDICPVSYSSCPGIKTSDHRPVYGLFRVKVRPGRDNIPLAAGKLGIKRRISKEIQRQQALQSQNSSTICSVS

ARL13B(WT)-EGFP = ARL13B(WT)-EGFP (UniProt Q3SXY8); test: co-IP; visible immunoprecipitation (VIP) assay with three coexpressed proteins fused to EGFP, mChe and tBFP in HEK293T cells; EGFP fusion precipitated with GST-anti-GFP nanobody beads; beads observed under a fluorescence microscope; vector ratios ARL3:INPP5E:PDE6D 1:6:1 or ARL13B:INPP5E:PDE6D 4:5:1
ARL3-EGFP (human) = ARL3-EGFP (human) (UniProt P36405); test: as above
EGFP-INPP5E [3] = target: T1, EGFP-INPP5E; test: as above
EGFP-PDE6D (human) [4] = target: EGFP-PDE6D (human) (UniProt O43924); test: co-IP; visible immunoprecipitation (VIP) assay followed by immunoblotting (anti-mChe, anti-GFP); lysates of HEK293T cells coexpressing two fluorescent fusion proteins; EGFP fusion precipitated with GST-fused anti-GFP nanobody prebound to glutathione-Sepharose beads; lysis buffer 50 mM HEPES pH 7.4, 100 mM KCl, 1 mM DTT, 5 mM NaCl, 3 mM MgCl2, 0.5% Triton X100, 10% glycerol

binding (EGFP-PDE6D (human) [1]): no binding | binding (EGFP-INPP5E [2]): binds | binding (EGFP-fused INPP5E(1-626)): binds | binding (EGFP-fused INPP5E(ΔCTS)): no binding
Substance: ARL13B-mChe (from UniProt Q3SXY8 1-428)

binding (ARL13B(WT)-EGFP): no binding | binding (ARL3-EGFP (human)): binds | binding (EGFP-INPP5E [3]): binds
Substance: mChe-PDE6D (from UniProt O43924 1-150)

binding (EGFP-PDE6D (human) [4]): binds
Substance: mChe-fused ARL3(Q71L) (from UniProt P36405 1-182)

binding (EGFP-PDE6D (human) [4]): no binding
Substance: mChe-fused ARL3(T31N) (from UniProt P36405 1-182)

binding (EGFP-INPP5E [3]): no binding | binding (EGFP-PDE6D (human) [4]): binds
Substance: mChe-fused wild-type (WT) ARL3 (from UniProt P36405 1-182)

binding (ARL13B(WT)-EGFP): no binding | binding (ARL3-EGFP (human)): binds | binding (EGFP-INPP5E [3]): binds
Substance: tBFP-PDE6D (from UniProt O43924 1-150)

binding (EGFP-INPP5E [3]): no binding
Substance: tBFP-fused ARL3 (from UniProt P36405 1-182)

binding (EGFP-PDE6D (human) [1]): no binding
Substance: tBFP-fused ARL13B (from UniProt Q3SXY8 1-428)

From article PMC8496693
